# Measurements as given in the supplement of paper PMC8728848.
# Some of the results follow.
# B1: Lmo1413 (Listeria monocytogenes), Q8Y783 (protein)
# chain: MKHAKKSLFTFIIFMTILSITFNPFSAKAAPLMLNLPAPQVDQLYIGDDYITGKLQQEVPMHYPGNAAYVLFNNKQYNITDYTVENDVNFRLKLPKTLEAGDTLNYFTITGNVLDPVAYPGQESYKLAGPFSPIEKANIQVNYVDETNQTLATSDTLSGKLGETYTTSPKAIDGYQVKETPTNATGTYTTNTETIQINYVYEKTAVEGANVSVEYINEATNESIAPTETLSGKIGTTFQAEVKEIDGYELSQVPSNQSGTYTDQTQSVIFKYKKITTPDEVAKDVTVTYKDTKGNQLADPVILKGDIGSTFETEAKSFKGYKLTKTPSNHSSVFTSDSQEVEYVYSKDDAVITPPVTPVNPDKPIINPVKPVNPATSTVPNKNISKKNTTKTVNQTGKTSTALQLPKTGDSENNLPLIIGVSLLISGVYIFTTRRKRVK
# Key:
# Assay in all cases: glycan array binding signal (z-score within array); higher = stronger binding
# Settings in all cases: glycan notation: IUPAC condensed, linker removed
# [1] = target: Gal3S(b1-4)[Fuc(a1-3)]Glc
# Outline: (§1)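 Glycan array binding is given as a within-array Z-score, which can be read as non-binding when negative. The arrays, 3228 of them, came from the Consortium for Functional Glycomics database and were retained only where the protein sequence was available. Z-scores were averaged across arrays of the same protein sequence at different concentrations or buffers and across linkers.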
# [2] = target: Gal3S(b1-4)[Fuc(a1-3)]Glc6S
# Outline: as §1
# [3] = target: Gal3S4S(b1-4)GlcNAc
# Outline: as §1
# [4] = target: Gal3S6S(b1-4)GlcNAc
# Outline: as §1
# [5] = target: Gal3S6S(b1-4)GlcNAc6S
# Outline: as §1
# [6] = target: Gal4S(b1-4)GlcNAc
# Outline: as §1
# [7] = target: Gal4S6S(b1-4)GlcNAc
# Outline: as §1
# [8] = target: Gal6S(b1-4)Glc
# Outline: as §1
# [9] = target: Gal6S(b1-4)Glc6S
# Outline: as §1
# [10] = target: Gal6S(b1-4)GlcNAc
# Outline: as §1
# [11] = target: Gal6S(b1-4)GlcNAc6S
# Outline: as §1
# [12] = target: GalNAc(a1-3)Gal
# Outline: as §1
# [13] = target: GalNAc(a1-3)GalNAc
# Outline: as §1
# [14] = target: GalNAc(a1-3)GalNAc(a1-3)Gal(a1-4)Gal(b1-4)GlcNAc
# Outline: as §1
# [15] = target: GalNAc(b1-3)Gal
# Outline: as §1
# [16] = target: GalNAc(b1-3)Gal(a1-4)Gal(b1-4)GlcNAc
# Outline: as §1
# [17] = target: GalNAc(b1-3)Gal(a1-4)Gal(b1-4)GlcNAc(b1-3)Gal(b1-4)Glc
# Outline: as §1
# [18] = target: GalNAc(b1-3)Gal(a1-6)Gal(b1-4)Glc
# Outline: as §1
# [19] = target: GalNAc(b1-3)GalNAc
# Outline: as §1
# [20] = target: GalNAc(b1-4)GlcNAc
# Outline: as §1
# [21] = target: GalNAc(b1-4)GlcNAc(b1-2)Man(a1-3)[GalNAc(b1-4)GlcNAc(b1-2)Man(a1-6)]Man(b1-4)GlcNAc(b1-4)GlcNAc
# Outline: as §1
# [22] = target: Glc(a1-4)Glc
# Outline: as §1
# [23] = target: Glc(a1-6)Glc(a1-6)Glc
# Outline: as §1
# [24] = target: Glc(b1-4)Glc
# Outline: as §1
# [25] = target: Glc(b1-6)Glc
# Outline: as §1
# [26] = target: GlcA(b1-3)Gal
# Outline: as §1
# [27] = target: GlcA(b1-3)GlcNAc
# Outline: as §1
# [28] = target: GlcA(b1-6)Gal
# Outline: as §1
# [29] = target: GlcNAc(a1-3)Gal(b1-4)GlcNAc
# Outline: as §1
# [30] = target: GlcNAc(a1-4)Gal(b1-3)GlcNAc
# Outline: as §1
# [31] = target: GlcNAc(a1-4)Gal(b1-4)GalNAc
# Outline: as §1
# [32] = target: GlcNAc(a1-4)Gal(b1-4)GlcNAc
# Outline: as §1
# [33] = target: GlcNAc(a1-4)Gal(b1-4)GlcNAc(b1-3)Gal(b1-4)Glc
# Outline: as §1
# [34] = target: GlcNAc(a1-4)Gal(b1-4)GlcNAc(b1-3)Gal(b1-4)GlcNAc
# Outline: as §1
# [35] = target: GlcNAc(a1-4)Gal(b1-4)GlcNAc(b1-3)Gal(b1-4)GlcNAc(b1-3)Gal(b1-4)GlcNAc
# Outline: as §1
# [36] = target: GlcNAc(a1-4)Gal(b1-4)GlcNAc(b1-3)Gal(b1-4)[Fuc(a1-3)]GlcNAc(b1-3)Gal(b1-4)[Fuc(a1-3)]GlcNAc
# Outline: as §1
# [37] = target: GlcNAc(a1-6)Gal(b1-4)GlcNAc
# Outline: as §1
# [38] = target: GlcNAc(b1-2)Gal(b1-3)GalNAc
# Outline: as §1
# [39] = target: GlcNAc(b1-2)Man(a1-3)[GlcNAc(b1-2)Man(a1-6)]Man(b1-4)GlcNAc(b1-4)GlcNAc
# Outline: as §1
# [40] = target: GlcNAc(b1-2)Man(a1-3)[GlcNAc(b1-2)Man(a1-6)]Man(b1-4)GlcNAc(b1-4)[Fuc(a1-6)]GlcNAc
# Outline: as §1
# [41] = target: GlcNAc(b1-2)[GlcNAc(b1-4)]Man(a1-3)[GlcNAc(b1-2)Man(a1-6)]Man(b1-4)GlcNAc(b1-4)GlcNAc
# Outline: as §1
# [42] = target: GlcNAc(b1-3)Gal
# Outline: as §1
# [43] = target: GlcNAc(b1-3)Gal(b1-3)GalNAc
# Outline: as §1
# [44] = target: GlcNAc(b1-3)Gal(b1-4)Glc
# Outline: as §1
# [45] = target: GlcNAc(b1-3)Gal(b1-4)GlcNAc
# Outline: as §1
binder,measurement,setting,value
B1,glycan array binding signal (z-score),[1],-0.07
same,glycan array binding signal (z-score),[2],-0.185
same,glycan array binding signal (z-score),[3],-0.058
same,glycan array binding signal (z-score),[4],-0.21
same,glycan array binding signal (z-score),[5],-0.163
same,glycan array binding signal (z-score),[6],-0.075
same,glycan array binding signal (z-score),[7],0.031
same,glycan array binding signal (z-score),[8],0.139
same,glycan array binding signal (z-score),[9],0.125
same,glycan array binding signal (z-score),[10],0.056
same,glycan array binding signal (z-score),[11],0.06
same,glycan array binding signal (z-score),[12],-0.115
same,glycan array binding signal (z-score),[13],0.042
same,glycan array binding signal (z-score),[14],-0.181
same,glycan array binding signal (z-score),[15],-0.182
same,glycan array binding signal (z-score),[16],-0.219
same,glycan array binding signal (z-score),[17],-0.168
same,glycan array binding signal (z-score),[18],0.128
same,glycan array binding signal (z-score),[19],-0.048
same,glycan array binding signal (z-score),[20],-0.13
same,glycan array binding signal (z-score),[21],-0.233
same,glycan array binding signal (z-score),[22],2.23
same,glycan array binding signal (z-score),[23],-0.034
same,glycan array binding signal (z-score),[24],1.27
same,glycan array binding signal (z-score),[25],0.048
same,glycan array binding signal (z-score),[26],-0.041
same,glycan array binding signal (z-score),[27],1.78
same,glycan array binding signal (z-score),[28],0.693
same,glycan array binding signal (z-score),[29],1.66
same,glycan array binding signal (z-score),[30],-0.24
same,glycan array binding signal (z-score),[31],-0.256
same,glycan array binding signal (z-score),[32],-0.233
same,glycan array binding signal (z-score),[33],-0.095
same,glycan array binding signal (z-score),[34],0.302
same,glycan array binding signal (z-score),[35],-0.121
same,glycan array binding signal (z-score),[36],-0.106
same,glycan array binding signal (z-score),[37],1.42
same,glycan array binding signal (z-score),[38],2.98
same,glycan array binding signal (z-score),[39],-0.237
same,glycan array binding signal (z-score),[40],-0.221
same,glycan array binding signal (z-score),[41],-0.212
same,glycan array binding signal (z-score),[42],-0.176
same,glycan array binding signal (z-score),[43],0.616
same,glycan array binding signal (z-score),[44],0.375
same,glycan array binding signal (z-score),[45],-0.093
